Reference: PubChem BioAssay AID624418 (National Center for Advancing Translational Sciences (NCATS), 2012)
About 530 (0.13%) of roughly 410,000 compounds were called active. The shares of active, inactive and inconclusive entries below differ from those in the screen. Calls follow the shape of the dose curve; as a rule, active = well fitted inhibition curve with a large enough effect; inconclusive = small, poorly fitted or top-dose-only effect, or another doubt; inactive = no such curve, though single readings can be large or run the other way. Potencies beside an inconclusive call are fits to weak or partial responses and may not hold up.

test: qHTS of GLP-1 Receptor Inverse Agonists: Cytotox Screen; details: HEK293 cAMP-luciferase reporter cells, luminescence, 24 h; activity change, negative = inhibition: at 38.3 µM (top of the series) unless noted
Summary of the method: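 MLSMR compounds, 24 hr on cells at 37 deg C/5% CO2; luminescence after luciferase reagent (12 min RT). Inhibition counted as the undesired cytotoxic outcome.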
% is scaled to controls: 0 for no effect and ±100 for the full control effect; potency is read from the fitted curve at half-maximal effect.

Structure (SMILES) | Potency | activity change, negative = inhibition
COc1ccc(NC(=O)c2cc(-c3cc(C)cc(F)c3)n[nH]2)cc1OC | inactive | 
CCOC(=O)c1c(NC(=O)CSc2nnnn2-c2ccccc2)sc2c1CC(C)(C)NC2(C)C | inconclusive: 28.2 µM [inhibitor, single point] | 
Cc1ccc2nc(NC(=O)c3ccccn3)sc2c1 | inconclusive: 0.501 µM [inhibitor, full curve, poor fit] | 
Cc1cc(C(=O)N/N=C/c2cc(N=Nc3ccccc3)ccc2O)n[nH]1 | inconclusive: 7.94 µM [inhibitor, partial curve] | 
CC(=O)Nc1ccc(NC(=O)Nc2cccc3ccccc23)cc1 | inactive | 
CCCCN(CC)CCCNC(=O)c1cc2c(-c3ccc(OC)c(OC)c3)nn(C)c2s1 | inconclusive: 28.2 µM [inhibitor, single point] | 
CCNC(=S)N/N=C(\C)c1ccc(Cl)s1 | inconclusive: 2.51 µM [inhibitor, full curve] | 
CN(c1ccc(O)cc1)c1nc(O)c(C2=c3ccccc3=NC2=O)s1 | inconclusive: 7.94 µM [inhibitor, partial curve, poor fit] | 
S=c1nc(SCc2ccccc2)[nH]c2ccccc12 | inactive | 
O=C(NNC(=S)NC1CCCCC1)c1sc2ccccc2c1Cl | inactive | 
CCn1cc(C(=O)NCCc2ccccc2)c(=O)c2cc(S(=O)(=O)N(C)C3CCCCC3)ccc21 | inactive | 
Cc1c(C(=O)Nc2cccc([N+](=O)[O-])c2)csc1-c1ccccc1 | inactive | 
N#C/C(=N\Nc1ccccc1[N+](=O)[O-])C(=N)N1CCCCC1 | inconclusive: 11.2 µM [inhibitor, partial curve, poor fit] | 
OCCNCc1ccc(OCc2ccc(Cl)cc2Cl)cc1 | inconclusive: 28.2 µM [inhibitor, single point] | 
Cc1nc(NCc2ccc(S(N)(=O)=O)cc2)c2c(C)c(C)sc2n1 | inconclusive: 28.2 µM [inhibitor, single point] | 
CC1(C(=O)NCc2ccccc2)CSCC(=O)N1C1CCN(Cc2ccccc2)CC1 (stereo not drawn) | inactive | 
CC(=O)/C(=N/Nc1ccccc1[N+](=O)[O-])N1CCCc2ccccc21 | inconclusive: 28.2 µM [inhibitor, single point] | 
O=C(COc1ccc(Cl)cc1)NCCNc1ccc([N+](=O)[O-])cc1 | inconclusive: 12.6 µM [inhibitor, partial curve] | 
Cc1ccc2oc(=O)c3cc(C(=O)N(Cc4ccccc4)C(C)C)sc3c2c1 | inactive | 
CCCCN(C(=O)CCCc1nc2ccccc2c(=O)[nH]1)c1c(N)n(CCCC)c(=O)[nH]c1=O | inactive | 
COc1ccc(/C=C2\SC(=S)N(CCCC(=O)N3CCN(C)CC3)C2=O)cc1 | inconclusive: 6.31 µM [inhibitor, partial curve, poor fit] | 
Cc1cccc(C(=O)N/N=C/c2ccncc2)c1 | inactive | 
CCOC(=O)C1=C(C)NC(=S)NC1c1ccc(-c2ccc(Cl)cc2)o1 (stereo not drawn) | inconclusive: 22.4 µM [inhibitor, partial curve, poor fit] | 

Structure (SMILES) | Potency | activity change, negative = inhibition
Cc1ccc2c(c1)c1c(c(=O)n(Cc3ccccc3)c(=O)n1CC(=O)Nc1ccccc1C)n2C | inactive | 
CCN1CCC(N(Cc2cccc(OC)c2)C(=O)Nc2ccc(C)cc2Cl)CC1 | inactive | 
CCN(CC)CCNC(=O)c1ccc(NC(=O)c2cccc(S(=O)(=O)N3CCc4ccccc43)c2)cc1 | inconclusive: 12.6 µM [inhibitor, single point] | 
CSc1nnc(C(C)(C)C)c(=O)n1/N=C/c1ccccc1 | inconclusive: 28.2 µM [inhibitor, single point] | 
O=C1/C(=C/c2ccc(O)c(O)c2)SC(=S)N1Nc1ccccc1 | inconclusive: 31.6 µM [inhibitor, single point] | 
FC(F)(F)c1cc(CCN2C(=S)NC[C@@H]2Cc2ccccc2)cc(C(F)(F)F)c1 | inconclusive: 6.31 µM [inhibitor, full curve, poor fit] | 
Cc1ccc(C(=O)OCC(=O)N(C)c2ccccc2)c(C)c1 | inconclusive: 0.501 µM [inhibitor, full curve, poor fit] | 
CCNc1nc(NCC)nc(N/N=C/c2ccc(N(C)C)cc2)n1 | inconclusive: 22.4 µM [inhibitor, single point] | 
COc1cnc(-c2ccccn2)nc1Sc1ccc(C)cc1 | inconclusive: 2.51 µM [inhibitor, partial curve] | 
Nc1nc(SCc2ccc(Cl)cc2Cl)nc2nc3c(cc12)CCCC3 | inconclusive: 25.1 µM [inhibitor, single point] | 
NC(N)=N/N=C/c1ccc(Cl)c(Cl)c1 | inconclusive: 28.2 µM [inhibitor, single point] | 
CCCN(CCC)CCNC(=O)c1cc2c(-c3ccccc3F)nn(C)c2s1 | inconclusive: 7.94 µM [inhibitor, partial curve, poor fit] | 
COc1cc(CNCCO)cc(Br)c1OCc1ccccc1Cl | inconclusive: 20 µM [inhibitor, single point] | 
CCCCNC(=O)c1cccc(-n2cnc3cccnc32)c1C | inactive | 
COc1ccc(/[N+]([O-])=C/c2ccoc2)cc1 | inactive | 
C/C(=N\NC(=S)NC(C)C)c1ccc(Cl)c([N+](=O)[O-])c1 | inconclusive: 28.2 µM [inhibitor, single point] | 
O=C(CNC(=S)NC(=O)c1ccccc1)c1ccccc1 | inconclusive: 20 µM [inhibitor, single point] | 
COc1ccccc1COCC(O)CNCCc1ccc(C(F)(F)F)cc1 (stereo not drawn) | inconclusive: 28.2 µM [inhibitor, single point] | 
Cc1ccc(NC(=O)C2CCN(S(=O)(=O)c3c(C)nn(C)c3C)CC2)c(Cl)c1 | inconclusive: 0.447 µM [inhibitor, full curve, poor fit] | 
O=C(CSc1c2c(nc3ccc(Cl)cc13)CCCC2)NCc1ccccc1Cl | inconclusive: 11.2 µM [inhibitor, partial curve] | 
O=C(c1ccc(Cl)cc1)c1cc([N+](=O)[O-])ccc1N1CCOCC1 | inconclusive: 3.98 µM [inhibitor, partial curve] | 
Cc1cc(C(=O)N/N=C/C=C/c2ccccc2)n[nH]1 | inactive | 
Cc1cc(C)n(-c2ccc(C(=O)OCc3nnc(-c4ccccc4)o3)cc2)n1 | inactive | 

Structure (SMILES) | Potency | activity change, negative = inhibition
CCOc1ccccc1NC(=O)CC(c1ccc(F)cc1)N1Cc2ccccc2C1=O (stereo not drawn) | inconclusive: 12.6 µM [inhibitor, partial curve, poor fit] | 
N#CC1=C(N)Oc2n[nH]c(-c3cccs3)c2C1C1CCCCC1 (stereo not drawn) | inconclusive: 10 µM [inhibitor, single point] | 
Cc1ccc(O)c(-c2cc(-c3ccccc3[N+](=O)[O-])[nH]n2)c1 | inconclusive: 31.6 µM [inhibitor, single point] | 
O=C(NC(=S)Nc1ccccc1N1CCOCC1)c1cccc([N+](=O)[O-])c1 | inconclusive: 11.2 µM [inhibitor, partial curve, poor fit] | 
Cc1cccc(C)c1OCC(=O)OC/C(O)=C(\C#N)c1nc2ccccc2[nH]1 | inconclusive: 22.4 µM [inhibitor, single point] | 
O=C(NC(=S)N1CCCCC1)c1csc([N+](=O)[O-])c1 | inconclusive: 11.2 µM [inhibitor, partial curve, poor fit] | 
COc1ccc(CN2C(=O)C(C)Nc3ncnc(N4CCc5ccccc5C4)c32)cc1 (stereo not drawn) | inconclusive: 1.78 µM [inhibitor, full curve, poor fit] | 
NC(=O)CC(NC(=O)Cc1ccc(Br)cc1)c1ccc(N2CCCCCCC2)c([N+](=O)[O-])c1 (stereo not drawn) | inconclusive: 10 µM [inhibitor, partial curve, poor fit] | 
Cc1ccc(NC(=O)COC(=O)CNC(=O)c2cccs2)cc1S(=O)(=O)N1CCOCC1 | inactive | 
Cc1ccc2c(c1)c1c(n2CC(O)Cn2ccnc2C)C(=O)CCC1 (stereo not drawn) | inactive | 
CCNc1nc(NCC)nc(N(C)/N=C/c2ccco2)n1 | inconclusive: 12.6 µM [inhibitor, single point] | 
CCOc1cc(/C=N/Nc2nc(Nc3ccccc3)nc(N3CCCCC3)n2)ccc1OCC(=O)O | inconclusive: 6.31 µM [inhibitor, partial curve, poor fit] | 
O=C(CCNS(=O)(=O)c1ccc(OC(F)(F)F)cc1)N1CCN(C/C=C/c2ccccc2)CC1 | inconclusive: 10 µM [inhibitor, single point] | 
Cc1ccc(NC(=S)N(CCN2CCCCC2)Cc2ccco2)cc1 | inconclusive: 28.2 µM [inhibitor, single point] | 
O=C(CCCCn1c(=O)c2ccccc2n(CC(=O)Nc2cccc(F)c2)c1=O)NCc1ccco1 | inconclusive: 11.2 µM [inhibitor, partial curve] | 
COc1ccc(CN2C(=NC(=O)c3ccccc3)SC3CS(=O)(=O)CC32)cc1 (stereo not drawn) | inactive | 
CN=c1scc(C)n1/N=C/c1ccc(O)c(O)c1O | inconclusive: 11.2 µM [inhibitor, single point] | 
Cc1ccc(C(C)C)c(OC(=O)/C=C/c2ccccc2)c1 | inactive | 
O=C(O)CCc1nc2cc(C(F)(F)F)ccc2n(Cc2ccccc2)c1=O | inactive | 
COc1ccc(C2CC(c3cccs3)=NN2C(=O)CCl)cc1OC (stereo not drawn) | inconclusive: 10 µM [inhibitor, partial curve, poor fit] | 
CSc1ccccc1NC(=O)CSCc1ccc(C)cc1 | inactive | 
COc1ccc(Nc2c3c(nc4ccccc24)CCC3)c(OC)c1 |  | inconclusive: -81.3% [inhibitor]
